# Assay results from the supplement of paper PMC9174493.
# The other results are listed elsewhere or left out. Single values of this set are uncertain. Values with irradiation are relative to irradiated vehicle.
# Columns and labels:
# [1] = tested on: A549-Dual; assay: NF-kB reporter (SEAP) activity, viability-corrected, relative to vehicle (fold change vs vehicle); higher = more activation of STING-IRF / NF-kB immune response reporter
# [2] = tested on: A549-Dual; assay: ISRE reporter (Lucia luciferase) activity, viability-corrected, relative to vehicle (fold change vs vehicle); higher = more activation of STING-IRF / NF-kB immune response reporter
# 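Wherever NF-kB reporter (SEAP) activity, viability-corrected, relative to vehicle is given: viability correction based on the alamar blue assay, with concentrations leaving 10% survival or less dropped.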
Structure (SMILES),"NF-kB reporter ([1]; 0.1 µM, irradiation: 8 Gy/4 fr)","NF-kB reporter ([1]; 0.1 µM, irradiation: none)","NF-kB reporter ([1]; 0.3 µM, irradiation: 8 Gy/4 fr)","NF-kB reporter ([1]; 0.3 µM, irradiation: none)","NF-kB reporter ([1]; 1 µM, irradiation: 8 Gy/4 fr)","NF-kB reporter ([1]; 1 µM, irradiation: none)","NF-kB reporter ([1]; 3 µM, irradiation: 8 Gy/4 fr)","NF-kB reporter ([1]; 3 µM, irradiation: none)","NF-kB reporter ([1]; 10 µM, irradiation: 8 Gy/4 fr)","NF-kB reporter ([1]; 10 µM, irradiation: none)","ISRE reporter ([2]; 0.1 µM, irradiation: 8 Gy/4 fr)","ISRE reporter ([2]; 0.1 µM, irradiation: none)","ISRE reporter ([2]; 0.3 µM, irradiation: 8 Gy/4 fr)","ISRE reporter ([2]; 0.3 µM, irradiation: none)","ISRE reporter ([2]; 1 µM, irradiation: 8 Gy/4 fr)","ISRE reporter ([2]; 1 µM, irradiation: none)","ISRE reporter ([2]; 3 µM, irradiation: 8 Gy/4 fr)","ISRE reporter ([2]; 3 µM, irradiation: none)","ISRE reporter ([2]; 10 µM, irradiation: 8 Gy/4 fr)","ISRE reporter ([2]; 10 µM, irradiation: none)"
Oc1ccc(/C=C/c2cc(O)cc(O)c2)cc1 [Resveratrol],0.985,1.39,1.06,1.3,1.46,1.06,1.44,1.11,0.931,1.43,0.967,1.06,0.858,0.959,0.891,0.938,0.844,0.982,0.588,2.63
NC(=O)Cc1cccc(C(=O)c2ccccc2)c1N [Nepafenac],1.03,1.06,0.979,1.2,1.33,0.891,1.33,0.963,0.97,0.918,0.933,0.813,0.788,0.881,0.821,0.748,0.829,0.829,0.619,0.876
CC1CC2C3CCC4=CC(=O)C=CC4(C)C3(F)C(O)CC2(C)C1C(=O)CO (stereo not given) [Desoximetasone],0.567,0.71,0.878,0.67,0.928,0.681,0.959,0.672,0.718,0.964,0.0545,0.202,0.0696,0.243,0.0407,0.196,0.0635,0.205,0.0455,0.236
O=c1cc[nH]c(=O)[nH]1 [Uracil],1.32,1.25,1.03,1.28,0.98,1.73,1.11,1.21,1.18,1.09,1.25,1.41,1.27,1.3,1.12,1.29,1.31,1.07,1.08,1
CONC(=O)Nc1ccc(-c2sc3c(c2CN(C)C)c(=O)n(-c2ccc(OC)nn2)c(=O)n3Cc2c(F)cccc2F)cc1 [Relugolix],0.958,0.994,0.949,0.953,0.893,1.2,0.92,0.956,0.954,0.969,0.974,1.01,1.24,1,0.998,0.929,1.11,0.733,0.939,1.11
O=S1(=O)CCN(CN2CCS(=O)(=O)NC2)CN1 [Taurolidine],1.19,1.41,0.979,1.44,0.984,1.82,1.14,1.44,1.11,1.11,1.09,1.39,1.07,1.22,1.09,1.33,1.2,1.04,1.05,1.04
"COC1CC2CCC(C)C(O)(O2)C(=O)C(=O)N2CCCCC2C(=O)OC(C(C)CC2CCC(OP(C)(C)=O)C(OC)C2)CC(=O)C(C)/C=C(\C)C(O)C(OC)C(=O)C(C)CC(C)/C=C/C=C/C=C/1C (stereo not given) [Ridaforolimus (Deforolimus, MK-8669)]",0.94,1.17,0.954,1.29,0.93,1.34,0.94,1.15,1.22,1.07,0.661,1.18,0.673,1.18,0.666,1.2,0.612,1.28,0.619,0.912
CCCCNC(=O)NS(=O)(=O)c1ccc(C)cc1 [Tolbutamide],1.17,1.07,1.01,1.2,1.03,1.41,0.881,1.25,0.963,1.18,1.05,0.87,1.09,1.05,1.09,0.997,0.952,0.89,1.06,0.985
CCOc1ccccc1OCCNC(C)Cc1ccc(OC)c(S(N)(=O)=O)c1 (stereo not given) [Tamsulosin],0.955,1.1,1.03,1.23,1.46,1.25,1.64,1.09,1.08,0.845,1.07,0.89,0.945,0.794,0.956,0.787,0.914,1.11,0.825,0.876
N.N.O=C([O-])C1(C(=O)[O-])CCC1.[Pt+2] [Carboplatin],0.909,1,0.736,0.974,0.882,1.21,0.842,1.17,0.977,1.02,0.896,1.2,0.751,0.923,0.865,0.94,0.743,0.888,0.894,0.945
COc1c(OC2OC(CO)C(O)C(O)C2O)cc2c(c1OC)-c1ccc(SC)c(=O)cc1C(NC(C)=O)CC2 (stereo not given) [Thiocolchicoside],1.12,1.65,1.51,1.31,1.87,1.5,1.7,1.1,1.56,1.16,1.15,1.33,1.38,1.01,1.2,1.25,1.08,1.18,1.03,0.862
Cc1nc(Nc2ncc(C(=O)Nc3c(C)cccc3Cl)s2)cc(N2CCN(CCO)CC2)n1 [Dasatinib],0.735,1.15,0.699,1.13,0.629,1.15,0.716,0.939,0.914,0.917,0.358,0.614,0.269,0.497,0.186,0.495,0.187,0.383,0.159,0.382
